# Data taken from the supplement of paper PMC12067230.
# This is a noisy data set.
# Test: amyloid nucleation score relative to library mode (yeast Sup35 reporter selection) (log enrichment difference); higher = more amyloid nucleation; sequences are the first 22 residues of the Bri2 peptide extended by up to 12 random residues
# Details: random library (experiment): 1;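 active = nucleation score significantly above 0 at FDR 0.05; inactive = not significantly above 0 or absent from output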
# 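Further: [psi-pin-] Saccharomyces cerevisiae expressing SupN fusions, induced by 100 µM Cu2SO4, selected 7 d at 30 °C without adenine and uracil, scored by deep sequencing of output versus input.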
row,Sequence,amyloid nucleation score
1,EASNCFAIRHFENKFAVETLICYKDKELPRTLEY,inactive
2,EASNCFAIRHFENKFAVETLICYKLDRCTLCWAM,2.09
3,EASNCFAIRHFENKFAVETLICYKRRGPRGQLRR,inactive
4,EASNCFAIRHFENKFAVETLICYKSSYCQQHVRH,4.28
5,EASNCFAIRHFENKFAVETLICYKV,inactive
6,EASNCFAIRHFENKFAVETLICYKVFSRTHKMSS,inactive
7,EASNCFAIRHFENKFAVETLICYKVNFVPREILC,0.627
8,EASNCFAIRHFENKFAVETLICYL,8.77
9,EASNCFAIRHFENKFAVETLICYLCFCYDVFKRR,4.65
10,EASNCFAIRHFENKFAVETLICYLEFITT,3.34
11,EASNCFAIRHFENKFAVETLICYLESSQ,4.75
12,EASNCFAIRHFENKFAVETLICYLFGRVVYRA,inactive
13,EASNCFAIRHFENKFAVETLICYLFLT,inactive
14,EASNCFAIRHFENKFAVETLICYLGCTELGAGRW,5.48
15,EASNCFAIRHFENKFAVETLICYLGIWLPVCLVW,inactive
16,EASNCFAIRHFENKFAVETLICYLGWTRSIELSS,inactive
17,EASNCFAIRHFENKFAVETLICYLHGPTWFLYGG,0.6
18,EASNCFAIRHFENKFAVETLICYLIPSMC,inactive
19,EASNCFAIRHFENKFAVETLICYLLVAETPMFRR,0.42
20,EASNCFAIRHFENKFAVETLICYLPFAIYHDGAT,6.43
21,EASNCFAIRHFENKFAVETLICYLPVVNGEFALV,inactive

row,Sequence,amyloid nucleation score
1,EASNCFAIRHFENKFAVETLICYLQQSDY,7.07
2,EASNCFAIRHFENKFAVETLICYLQSYNGLVLLS,inactive
3,EASNCFAIRHFENKFAVETLICYLRFLWHASLRC,inactive
4,EASNCFAIRHFENKFAVETLICYLS,6.79
5,EASNCFAIRHFENKFAVETLICYLSHDGRWGERR,4.82
6,EASNCFAIRHFENKFAVETLICYLSRCVTVCTPL,inactive
7,EASNCFAIRHFENKFAVETLICYLSRNNSNLWCA,inactive
8,EASNCFAIRHFENKFAVETLICYLSSE,7.19
9,EASNCFAIRHFENKFAVETLICYLSYWNRCLWKK,inactive
10,EASNCFAIRHFENKFAVETLICYLTDEYMFDLEG,inactive
11,EASNCFAIRHFENKFAVETLICYLVNANFGYLSS,3.64
12,EASNCFAIRHFENKFAVETLICYLWD,6.61
13,EASNCFAIRHFENKFAVETLICYLWLPSSASMER,4.83
14,EASNCFAIRHFENKFAVETLICYLYV,6.81
15,EASNCFAIRHFENKFAVETLICYM,7.7
16,EASNCFAIRHFENKFAVETLICYMGHEGGQVAVG,inactive
17,EASNCFAIRHFENKFAVETLICYMIALRQLAPIR,inactive
18,EASNCFAIRHFENKFAVETLICYMKA,inactive
19,EASNCFAIRHFENKFAVETLICYMLIFCLKVRER,inactive
20,EASNCFAIRHFENKFAVETLICYMLLMTTCLTEL,inactive

# Same assay, conditions: random library (experiment): 2
row,Sequence,amyloid nucleation score
1,EASNCFAIRHFENKFAVETLICYIYGEIVGISW,inactive
2,EASNCFAIRHFENKFAVETLICYKACASFSGWIV,1.04
3,EASNCFAIRHFENKFAVETLICYKCMYSVNDRRL,3.33
4,EASNCFAIRHFENKFAVETLICYKKALFGCGKIF,inactive
5,EASNCFAIRHFENKFAVETLICYKLNGEV,inactive
6,EASNCFAIRHFENKFAVETLICYKMYYLL,inactive
7,EASNCFAIRHFENKFAVETLICYKNL,inactive
8,EASNCFAIRHFENKFAVETLICYKRNVNLVRCLV,inactive
9,EASNCFAIRHFENKFAVETLICYKSMGFLNNRTL,inactive
10,EASNCFAIRHFENKFAVETLICYKVCGVKQLML,inactive
11,EASNCFAIRHFENKFAVETLICYKVFSDSLANCW,inactive
12,EASNCFAIRHFENKFAVETLICYKVSGIRMWCYG,inactive
13,EASNCFAIRHFENKFAVETLICYKVVNIEYSGRV,8.78
14,EASNCFAIRHFENKFAVETLICYKWALLDAFCGI,inactive
15,EASNCFAIRHFENKFAVETLICYLCLSWFISFDQ,inactive
16,EASNCFAIRHFENKFAVETLICYLDGRSVRFMFS,inactive
17,EASNCFAIRHFENKFAVETLICYLDNNIYYAPAR,8
18,EASNCFAIRHFENKFAVETLICYLDVGGWRVISW,inactive
19,EASNCFAIRHFENKFAVETLICYLDYLWYVKVLT,-0.0488
20,EASNCFAIRHFENKFAVETLICYLFTATIFLVSV,inactive
21,EASNCFAIRHFENKFAVETLICYLGALVVCPYYA,5.59
22,EASNCFAIRHFENKFAVETLICYLGCNTHFCRWI,inactive
23,EASNCFAIRHFENKFAVETLICYLHFCVMKGYGV,inactive
24,EASNCFAIRHFENKFAVETLICYLHMVFLPGRCR,inactive
25,EASNCFAIRHFENKFAVETLICYLIRNHVKGMWL,0.635
26,EASNCFAIRHFENKFAVETLICYLKNDPMSMLRH,inactive

row,Sequence,amyloid nucleation score
1,EASNCFAIRHFENKFAVETLICYLKTWSLYVVGY,inactive
2,EASNCFAIRHFENKFAVETLICYLKVSYRGMVNL,inactive
3,EASNCFAIRHFENKFAVETLICYLL,7.56
4,EASNCFAIRHFENKFAVETLICYLLDSNTDGMWC,inactive
5,EASNCFAIRHFENKFAVETLICYLLHIGPLSVLQ,inactive
6,EASNCFAIRHFENKFAVETLICYLLISLRCTPLD,inactive
7,EASNCFAIRHFENKFAVETLICYLLNR,6.41
8,EASNCFAIRHFENKFAVETLICYLNVC,6.97
9,EASNCFAIRHFENKFAVETLICYLPYCCVESLIP,4.43
10,EASNCFAIRHFENKFAVETLICYLRKPVHVGDFW,1.34
11,EASNCFAIRHFENKFAVETLICYLRSDITGSLVS,inactive
12,EASNCFAIRHFENKFAVETLICYLSCFVIFSFAY,inactive
13,EASNCFAIRHFENKFAVETLICYLSCSWGFVPRK,inactive
14,EASNCFAIRHFENKFAVETLICYLSSSY,inactive
15,EASNCFAIRHFENKFAVETLICYLSYLSQSGFSC,inactive
16,EASNCFAIRHFENKFAVETLICYLTLKGLVTRSC,inactive
17,EASNCFAIRHFENKFAVETLICYLVAGY,inactive
18,EASNCFAIRHFENKFAVETLICYLVILYYFTGLT,inactive
19,EASNCFAIRHFENKFAVETLICYLVLMSMASSME,-0.482
20,EASNCFAIRHFENKFAVETLICYLWHNLLVSRVL,inactive
21,EASNCFAIRHFENKFAVETLICYLYGM,5.61
22,EASNCFAIRHFENKFAVETLICYLYLRACGVYLQ,inactive
23,EASNCFAIRHFENKFAVETLICYLYRSKPPLIIS,inactive
24,EASNCFAIRHFENKFAVETLICYLYTSIRARSWR,inactive
25,EASNCFAIRHFENKFAVETLICYMLACTNDSI,7.48
26,EASNCFAIRHFENKFAVETLICYMLRIILLRC,inactive

# Same assay, conditions: random library (experiment): 3
row,Sequence,amyloid nucleation score
1,EASNCFAIRHFENKFAVETLICYKCANVCMVTSG,inactive
2,EASNCFAIRHFENKFAVETLICYKIARMCVRRTG,inactive
3,EASNCFAIRHFENKFAVETLICYKL,3.77
4,EASNCFAIRHFENKFAVETLICYKSIRDVMYHFV,inactive
5,EASNCFAIRHFENKFAVETLICYLCVTMLDGIPA,1.48
6,EASNCFAIRHFENKFAVETLICYLDCRKVMYSHG,6.1
7,EASNCFAIRHFENKFAVETLICYLGNQTFKCCLG,5.82
8,EASNCFAIRHFENKFAVETLICYLGPVMQLRRLD,7.04
9,EASNCFAIRHFENKFAVETLICYLGSMNCLVQGR,5.41
10,EASNCFAIRHFENKFAVETLICYLHVSGYLSITM,0.00905
11,EASNCFAIRHFENKFAVETLICYLIESHYHNFLT,inactive
12,EASNCFAIRHFENKFAVETLICYLIVPKMPWGYG,inactive
13,EASNCFAIRHFENKFAVETLICYLLFIDDGKR,2.85
14,EASNCFAIRHFENKFAVETLICYLQ,7.73
15,EASNCFAIRHFENKFAVETLICYLRFSRL,inactive
16,EASNCFAIRHFENKFAVETLICYLRSSEPCRAKE,inactive
17,EASNCFAIRHFENKFAVETLICYLSNVDCMFDTI,inactive
18,EASNCFAIRHFENKFAVETLICYLVQML,6.82
19,EASNCFAIRHFENKFAVETLICYLVRFWHYPFTP,inactive
20,EASNCFAIRHFENKFAVETLICYLVYTVVFVGVG,-0.294
21,EASNCFAIRHFENKFAVETLICYLWDSVLLPSTG,inactive
22,EASNCFAIRHFENKFAVETLICYMCNRLMYLVFR,inactive
23,EASNCFAIRHFENKFAVETLICYMHTKLYRCCMC,inactive
24,EASNCFAIRHFENKFAVETLICYMHVLTC,inactive
25,EASNCFAIRHFENKFAVETLICYMLIRQS,inactive
26,EASNCFAIRHFENKFAVETLICYMLRVPDQDRLV,inactive
